The labels stand for the following.
B1: chr1:45693489:45693605:+|CDS|ENSG00000159596|unk|total|mutant (ssRNA)
RNA: GGGAGUUCUACAGUCCGACGAUCAAUCCCCUUCGUUGCUCCACCACUGGUCAUGCUGAUGACAAAAACUUAUAUUCCCAUAUCCGCUUUUACUCAGAUGGCUUAUGGAGCCAGUUUCCUAUCUUUCUUGGGUGGGAUCAGAUGCAACAGAGGAUUGAGCAUCA
B2: chr10:72011937:72012038:+|3pUTR|ENSG00000122863|msi1|total|mutant (ssRNA)
RNA: GGGAGUUCUACAGUCCGACGAUCCAUACACCGCAGGUGGUCACCGAGUUAUUUUCCAAAAGCUGAGGAACAUAAAGCAAAUUCCGGCUUUUGUCCUUCUGCAAUACAUGCACUUGAAAAUAAACAGAAAAGAGAUGUUUAAUACAACAGAGGAUUGAGCAUCA
B3: chr8:86558718:86558819:+|3pUTR|ENSG00000085719|unk|total|mutant (ssRNA)
RNA: GGGAGUUCUACAGUCCGACGAUCCUGUUGUUGUUUUUGUUUACUUUCAUAUGAUGAAAAUGCUGUGUUUAAGUGUUUGUCAACCGGAAGAAUGGAAAACUGUUGGGAUGAUGUGGUUUGCAGGUUGCUGUGCCUGAUUCACAGCAACAGAGGAUUGAGCAUCA
B4: chr1:52911722:52912021:-|three_prime_utr|ENSG00000121310|control|control|control (ssRNA)
RNA: GGGAGUUCUACAGUCCGACGAUCGGUUGGGAAAAUUGAGGCCUGCCUGAGUGUGUGACUUGUGGCAAGUCACUCUGGUCAUCUAGGGCAGAGGCUCCCCAGAUCCCAGGCCUCCUGCCUCCAGUCCCCAGCCCGCAGCCCAGGCAACAGAGGAUUGAGCAUCA
B5: chr1:117368288:117368465:+|CDS|ENSG00000198162|unk|FALSE|unique (ssRNA)
RNA: GGGAGUUCUACAGUCCGACGAUCUUUUGGGGCAUUCUUUUUCCUUCCAGACUCUUCAAAACACAAACGCUUUGAUUUGGGUUUAGAAGAUGUGUUAAUUCCACAUGUAGAUGCCGGUAAAGGGGCUAAAAACCCCGGAGUCUUCAACAGAGGAUUGAGCAUCA
B6: chr15:41480918:41481019:+|3pUTR|ENSG00000137815|msi1|FALSE|unique (ssRNA)
RNA: GGGAGUUCUACAGUCCGACGAUCCCUCCCCCAGGGCCCCACCCAGUGUGGGCCUGGGCUCUCUUGGGCUUUAUCCAUGUCUUUAGAUUUGUGUUUGCCUUUUGUUUUUUUAACCGCGCAGUUCAUUGGCCACUCUGCACGCAUCAACAGAGGAUUGAGCAUCA
B7: chr10:30312946:30313047:-|3pUTR|ENSG00000107951|unk|FALSE|unique (ssRNA)
RNA: GGGAGUUCUACAGUCCGACGAUCUCUUAUUCACAUAUAAAUUAAAGUGGGUUGGUACUGAUAUCAAAAAAUGUUUAUGUUUUUAGAACAGACAUUUCAGUCACUGCAUUCUUAGGUAUUCCAAACCAAAUAUGAUGACAUCAACAACAGAGGAUUGAGCAUCA
B8: chr7:73478266:73478367:-|CDS|ENSG00000009954|unk|FALSE|unique (ssRNA)
RNA: GGGAGUUCUACAGUCCGACGAUCGAGUGGCUCGCCACUCAAAGUGAAGAACUCAAAGAAUUCCAAAUCUCCUGAAGAACAUCUAGAAGAAAUGAUGAAGAUGAUGUCGCCCAAUAAGCUGCACACUAACUUUCACAUUCCUAACAACAGAGGAUUGAGCAUCA
B9: chr10:71816509:71816622:-|3pUTR|ENSG00000197746|msi1_unk|FALSE|overlapping (ssRNA)
RNA: GGGAGUUCUACAGUCCGACGAUCUGCCUACAUGUCCCUGGCUGUUGAGGCGCUGCUUCAGCCUGCACCCCUCCCUUGUCUCAUAGAUGCUCCUUUUGACCUUUUCAAAUAAAUAUGGAUGGCGAGCUCCUAGGCCUCUGGCUUCAACAGAGGAUUGAGCAUCA
B10: ENSG00000136451:be:win_851|CDS|ENSG00000136451|bound_else_gene|NA|bound_elsewhere_windowed (ssRNA)
RNA: GGGAGUUCUACAGUCCGACGAUCAAGGCAAGGUAUCAUGUAACAUCUGUGGGAAGCUCCUGAGUGCAGCAUACAUCACCAGCCACUUAAAGACUCAUGGGCAGAGCCAAAGUAUCAACUGUAAUACAUGUAAACAAGGCAUCACAACAGAGGAUUGAGCAUCA
B11: chr19:45711045:45711146:-|3pUTR|ENSG00000177051|msi1|total|mutant (ssRNA)
RNA: GGGAGUUCUACAGUCCGACGAUCGAAUUGGGGGCUGUCAGGUCACAGGUGGGAUCUGGCAUUUUUUUAUGACAGUCCAUUUCCCGAUGGUUUGCCUAUUAAAGAAGUGGGGGGGAAAUACUGUUUUCUCCUUAACCUCAAGCUCAACAGAGGAUUGAGCAUCA
B12: chr16:87831719:87831834:-|3pUTR|ENSG00000103257|msi1_unk|FALSE|overlapping (ssRNA)
RNA: GGGAGUUCUACAGUCCGACGAUCCCUGCGUUUGGAGGCCCCUGGGCUCUCACCCAGUCCCCACCCGCCUGCAGAGAGGGAACUAGGGCACCCCUUGUUUCUGUUGUUCCCGUGAAUUUUUUUCGCUAUGGGAGGCAGCCGAGGCAACAGAGGAUUGAGCAUCA
B13: chr1:36287001:36287112:+|CDS|ENSG00000054118|unk|FALSE|unique (ssRNA)
RNA: GGGAGUUCUACAGUCCGACGAUCCCCCUCCAGUCUGUGGUGGUGAGGCGGCGGUCACCCCGUCCUAGCCCCGUGCCAAAACCUAGUCCUCCACUUUCCAGCACAUCCCAGAUGGGCUCAACUCUGCCGAGUGGUGCCGGGUAUCAACAGAGGAUUGAGCAUCA
B14: chr1:67003359:67003460:-|3pUTR|ENSG00000116704|msi1|total|mutant (ssRNA)
RNA: GGGAGUUCUACAGUCCGACGAUCACUCAAAAGCCGCAAAUCUGUAAAUUGGAUUAAGAACACCUGCCCUACCUACCCGGCAACCGUGUGAAUCCAAAUGCUGCAAUGUGAGAUGAGGUACAAGUAAAGAGCUGUGUUUUGUAACAACAGAGGAUUGAGCAUCA
B15: ENSG00000070961:be:win_3851|3pUTR|ENSG00000070961|bound_else_gene|NA|bound_elsewhere_windowed (ssRNA)
RNA: GGGAGUUCUACAGUCCGACGAUCUUUUUGGGGGGUGGGAGAAAUGAACUGACAGAUAAACAGUAACUCAGCGUAAGUGACCUGUGGAUCAUCAGUAGUACCCAAGCAUGGUCCUGAACAGUGUAUUAGCAGAGCUUUAGUUUACAACAGAGGAUUGAGCAUCA
B16: chr11:60923185:60923286:+|3pUTR|ENSG00000110108|msi1|FALSE|unique (ssRNA)
RNA: GGGAGUUCUACAGUCCGACGAUCCAGAGAGCAGGGUGAGCUGCCAGCUGCCCCUCUCCACCAGGGUACCCUGUCUUGGUGGUUAGGGGCCACUUUUCCUUUGAGGCUCUAGUGGAGGUGGAUGUCCUUCUCUGCCAGGCUUGGCAACAGAGGAUUGAGCAUCA
B17: chr3:107805913:107806014:+|3pUTR|ENSG00000114439|msi1_unk|FALSE|overlapping (ssRNA)
RNA: GGGAGUUCUACAGUCCGACGAUCUACAUGGAGAUUUAAGUUUAAGAUGGUUUAUAUAAUAGGUUAUACCUACAUUUAUAUUGUAGAAUAAAUAUUAAAAAGCCUGUUCCAGAGACUCCCAAGCAGCCUGGGCAGGCAGAUGUACAACAGAGGAUUGAGCAUCA
B18: chr21:25758092:25758193:+|CDS|ENSG00000154727|unk|FALSE|unique (ssRNA)
RNA: GGGAGUUCUACAGUCCGACGAUCGAAUUCAGCAUGACCGAUAUAGACCUCACCACACUCAACAUUUCGGGGAGAGAAUUAUGUAGUCUCAACCAAGAAGAUUUUUUUCAGCGGGUUCCUCGGGGAGAAAUUCUCUGGAGUCAUCAACAGAGGAUUGAGCAUCA
B19: chr6:52500910:52501011:-|3pUTR|ENSG00000065308|msi1|total|mutant (ssRNA)
RNA: GGGAGUUCUACAGUCCGACGAUCUAAUAACUGCAAAUCGCAUGUUCAGCCAGCAGCCUCCUAAGCCCACCUUCCUCCCCCAUCCGAGAACACCCAUCCCCGGUGCUCUCCAGGCUGUGUCAUUGGCAGGGCUUCACAUGCAGGCAACAGAGGAUUGAGCAUCA
B20: chr2:171983412:171983537:+|3pUTR|ENSG00000128708|unk|total|mutant (ssRNA)
RNA: GGGAGUUCUACAGUCCGACGAUCUGAUGACUUUAAUUUUAAAAUCUUGUGACAUUUUGCUUAUACUAAAAGUUAUCUAUCUUCCGUUGAAUAUUUUCUUUUGGAGAGAUUGUAUAUUUUAAAAUACUGUUCCGAGUUUAUGAGCAACAGAGGAUUGAGCAUCA
B21: chr9:132670296:132670397:+|5pUTR|ENSG00000125484|msi1|FALSE|bound_elsewhere (ssRNA)
RNA: GGGAGUUCUACAGUCCGACGAUCCCUCCCCUUUACCGCCCCGUGCGUUUCCUCAGCACUUUAGGAACUAAAGCCUGUCUGGGUAGCUCCCUAACAGGCUCUGGAGCUCAAUCCCUGGGCAGGGAAAAGGGGGUCCUCGGGGCUCAACAGAGGAUUGAGCAUCA
B22: chr4:150265445:150265561:-|3pUTR|ENSG00000198589|unk|total|mutant (ssRNA)
RNA: GGGAGUUCUACAGUCCGACGAUCGGAUCCGCAAAGCAGAAAACUGGCUGCUGGGUUCUGCCGUUUUAAAAAAUCUAUAUUUUCCGUCAUAAUGAGAAGUCUAUUUUCACCAAUUAUGGAAACAUACAGUGGAGCAAGUAAACCCAACAGAGGAUUGAGCAUCA

The list shows a part of the results.

The target of the assay is MSI1 full-length (mouse, UniProt Q61474 1-362). The assay can be described thus: nsRBNS (natural sequence RNA bind-n-seq); RBNS binding buffer (assumed for nsRBNS): 25 mM Tris pH 7.5, 150 mM KCl, 3 mM MgCl2, 0.01% Triton X-100, 500 ug/ml BSA, 20 U/ml SUPERase-In, 4 C; UNK is unkempt and MSI1 is Musashi-1; names of the RNAs are library labels; protein concentration not given here; high values mean tight binding.
Sequence of UniProt Q61474 (Q61474 whole entry): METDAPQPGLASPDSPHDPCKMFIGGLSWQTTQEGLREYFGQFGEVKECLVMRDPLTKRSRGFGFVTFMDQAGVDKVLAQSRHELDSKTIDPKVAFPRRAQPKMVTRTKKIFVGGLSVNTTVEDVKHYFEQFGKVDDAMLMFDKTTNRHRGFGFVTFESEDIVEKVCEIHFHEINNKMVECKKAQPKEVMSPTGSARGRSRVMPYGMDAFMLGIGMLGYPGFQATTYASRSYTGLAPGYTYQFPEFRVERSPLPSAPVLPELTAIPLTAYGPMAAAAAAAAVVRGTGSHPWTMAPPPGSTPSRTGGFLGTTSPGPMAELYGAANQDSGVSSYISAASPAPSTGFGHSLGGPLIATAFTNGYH
Molecule B1 came in with a binding signal of 0.439 enrichment R.

As for B2, the binding signal came out at 0.277 enrichment R.

B3 yielded a binding signal of 0.342 enrichment R.

Consider B4, for which the binding signal stood at 0.439 enrichment R.

In the case of B5, the binding signal came to 0.251 enrichment R.

Molecule B6 registered a binding signal of 0.743 enrichment R.

B7: the binding signal amounted to 1.59 enrichment R.

B8 yielded a binding signal of 0.171 enrichment R.

Turning to B9, the binding signal worked out at 0.548 enrichment R.

In turn, B10 registered a binding signal of 0.517 enrichment R.

B11: the binding signal is 0.378 enrichment R.

Take B12: the binding signal worked out at 0.371 enrichment R.

Consider B13, for which the binding signal was 0.473 enrichment R.

For B14, the binding signal stood at 0.583 enrichment R.

In the case of B15, the binding signal was 3 enrichment R.

Turning to B16, the binding signal was found to be 0.389 enrichment R.

For B17, the binding signal amounted to 2.97 enrichment R.

Consider B18, for which the binding signal is 0.751 enrichment R.

In turn, B19 yielded a binding signal of 0.612 enrichment R.

The molecule B20 showed a binding signal of 0.454 enrichment R.

As to B21, the binding signal came out at 0.341 enrichment R.

B22 had a binding signal of 0.301 enrichment R.

These data come from paper PMC12136788.
